Reference: the antibiotic and cytotoxicity screens of Wong et al. (2023)
The other results are listed elsewhere or left out.

What follows are molecules tested on S. aureus RN4220 (assay: growth inhibition call (relative growth <= 0.2)). Settings: 50 µM.

Growth inhibition call, inactive:
Cn1nnc2c1[C@H](COCC1CC1)CNC2
C[C@@H]1CN([C@H](C)CO)C(=O)Cc2cc(NC(=O)Cc3ccccc3)ccc2O[C@@H]1CN(C)S(=O)(=O)c1ccc(F)cc1
CNC(=O)c1ccc(N)cc1
CN1C(=O)c2cc(NS(=O)(=O)c3ccc(F)cc3)ccc2OC[C@@H]2O[C@@H](CC(=O)NCC(F)(F)F)CC[C@H]21
CC(O)C1C(=O)N2C(C(=O)[O-])=C(SC3Cn4cnc[n+]4C3)C(C)C12 (configuration not stated)
C[C@@H]1CN([C@H](C)CO)C(=O)c2cccc(NC(=O)Nc3ccc4c(c3)OCO4)c2O[C@H]1CN(C)Cc1ccc(C(F)(F)F)cc1
Cc1ccc(S(=O)(=O)Nc2cccc3c2O[C@@H](CN(C)S(=O)(=O)c2ccccc2)[C@H](C)CN([C@H](C)CO)C3=O)cc1
CC(C)NC(=O)N(C)C[C@H]1Oc2c(NS(=O)(=O)c3ccc(F)cc3)cccc2C(=O)N([C@@H](C)CO)C[C@H]1C
CCN1C(=O)[C@H]2[C@H](O)CS[C@H]2C1=O
C[C@H]1CN([C@@H](C)CO)S(=O)(=O)c2ccc(C3=CCCC3)cc2O[C@H]1CN(C)S(=O)(=O)c1ccc(F)cc1
C[C@H](CO)N1C[C@H](C)[C@@H](CN(C)C(=O)CN2CCOCC2)Oc2ncc(C#CCN(C)C)cc2C1=O
C[C@H]1CC[C@@H]2N(C1)C[C@@H]1[C@H]([C@@H](O)[C@H](O)[C@]3(O)[C@H]1C[C@@]14O[C@]5(O)[C@@H](C[C@@H](O)[C@@H]31)[C@]4(C)CC[C@@H]5O)[C@]2(C)O
